# Reference: the supplement of paper PMC4967469
# A lower IC50 marks a more sensitive line; a fit beyond the top or the lowest dose is shown as a bound at that dose. AUC, from the same fit, is the share of area under the viability curve across the 256-fold dose range; the more sensitive the line, the further below 1. An inferred top dose comes from the curve model; the source does not state it.
# Experiments:
# Assay in all cases: Viability of human cancer cell lines after 72 h of drug (GDSC screen)
# [1] = compound: CCC1=C[C@@H]2CN(C1)Cc1c([nH]c3ccccc13)[C@@](C(=O)OC)(c1cc3c(cc1OC)N(C)[C@H]1[C@@](O)(C(=O)OC)[C@H](OC(C)=O)[C@]4(CC)C=CCN5CC[C@]31[C@@H]54)C2 [Vinorelbine]; conditions: top dose 0.064 µM; top dose inferred
# Description: (§1)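 Human cancer cell lines in 384-well plates, medium with 10% serum, drug for 72 h over a 256-fold dose range (nine 2-fold or five 4-fold steps up to the top dose). Adherent lines were fixed and stained with the nucleic acid dye Syto60, suspension lines read with resazurin; signal relative to control wells, capped at 0 and 100%. One two-parameter sigmoid per drug and line, fitted in a mixed model over all curves with the slope shared within a line.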
# [2] = compound: CNCc1ccc(-c2[nH]c3cc(F)cc4c3c2CCNC4=O)cc1 [AG-014699]; conditions: top dose 5 µM; top dose inferred
# Description: as §1
# [3] = compound: O=c1cc(N2CCOCC2)oc2c(-c3cccc4c3sc3ccccc34)cccc12 [NU-7441]; conditions: top dose 2 µM; top dose inferred
# Description: as §1
# [4] = compound: C=CC(=O)Nc1cc(NC(=O)c2ccc(C)c(NC(=O)c3ccno3)c2)cc(C(F)(F)F)c1 [QL-XI-92]; conditions: top dose 10.24 µM; top dose inferred
# Description: as §1
# [5] = compound: N[C@@H](CSC(c1ccccc1)(c1ccccc1)c1ccccc1)C(=O)O [S-Trityl-L-cysteine]; conditions: top dose 5.12 µM; top dose inferred
# Description: as §1
# [6] = compound: COc1cc2nccc(Oc3ccc(NC(=O)C4(C(=O)Nc5ccc(F)cc5)CC4)cc3)c2cc1OC [XL-184]; conditions: top dose 5.12 µM; top dose inferred
# Description: as §1
# [7] = compound: N=C(N)NC(=N)NCCc1ccccc1 [Phenformin]; conditions: top dose 4000 µM; top dose inferred
# Description: as §1
# [8] = compound: COc1cc2ncnc(Nc3cc(Br)c(O)c(Br)c3)c2cc1OC [WHI-P97]; conditions: top dose 10.24 µM; top dose inferred
# Description: as §1
# [9] = compound: O=c1cc(CN2CCOCC2)occ1OCCCCCSc1ccnc2cc(C(F)(F)F)ccc12 [EHT 1864]; conditions: top dose 10 µM; top dose inferred
# Description: as §1
Cell Line,AUC [1],IC50 [1] [µM],AUC [2],IC50 [2] [µM],AUC [3],IC50 [3] [µM],AUC [4],IC50 [4] [µM],AUC [5],IC50 [5] [µM],AUC [6],IC50 [6] [µM],AUC [7],IC50 [7] [µM],AUC [8],IC50 [8] [µM],AUC [9],IC50 [9] [µM]
"KG-1 (acute myeloid leukaemia, suspension)",0.936,> 0.064,0.982,> 5,0.987,> 2,0.846,6.31,0.99,> 5.12,0.831,2.79,0.433,168,0.935,> 10.2,0.958,> 10
"LC-2-ad (lung adenocarcinoma, adherent)",0.362,0.00165,0.975,> 5,0.985,> 2,0.959,> 10.2,0.605,0.625,0.809,2.75,0.668,745,0.894,> 10.2,0.982,> 10
"LNCaP-Clone-FGC (prostate, adherent)",0.743,0.0222,0.959,> 5,0.95,> 2,0.896,> 10.2,0.98,> 5.12,0.908,> 5.12,0.745,1410,0.961,> 10.2,0.914,> 10
